Each structure is given as a SMILES string.

This is an account of results in patent US20090104257A1 (priority 2007, published 2009).

The series in a line: Concentration of vancomycin in the lungs of infected mice (Example 9).

On to `CN[C@H](CC(C)C)C(=O)N[C@H]1C(=O)N[C@@H](CC(N)=O)C(=O)N[C@H]2C(=O)N[C@H]3C(=O)N[C@H](C(=O)N[C@H](C(=O)O)c4cc(O)cc(O)c4-c4cc3ccc4O)[C@H](O)c3ccc(c(Cl)c3)Oc3cc2cc(c3O[C@@H]2O[C@H](CO)[C@@H](O)[C@H](O)[C@H]2O[C@H]2C[C@](C)(N)[C@H](O)[C@H](C)O2)Oc2ccc(cc2Cl)[C@H]1O` [Vancomycin, vancomycin], for which the “Vancomycin (ug/lung), individual mice” value ((6 mg/kg/day) injected IP, 4 days post therapy, 0 = below the level of detection, listed as Soluble Vancomycin) was “#0 ug/lung”. For the same molecule, under “IP injection of 12 mg/kg/day (FIG. 7)”, the “vancomycin in the lungs at day seven” value is listed as “No vancomycin was detected”. In addition, where the note is “IP, based on 4% of the delivered dose in the lungs 30 min post injection”, the “initial daily lung dose” value was 15 ug of vancomycin/lung. Where the note is “Intraperitoneal, BID × 3, 12 mg/kg/day”, the “animals with vancomycin in lung / survivors” value is 0/12. Further, the “vancomycin detected after IP injection” value (Six (6) hours after IP injection, Swiss Webster mice) is given as “no detectable vancomycin”.
